Reference: the supplement of paper PMC11876631
Positions count from the first letter of the chain named. Names may count otherwise. ± gives the standard deviation of the averaged measurements. Laboratory Escherichia coli strains with one amino-acid change in an essential protein, pooled on minimal glucose agar with carbenicillin or gentamicin at twice the control MIC (plus kanamycin and chloramphenicol for the plasmids), 48 h. Fold change of barcode share against drug-free plates; higher = less susceptible. Active = above 20 in both replicates (the paper's putatively resistant). '<' = one read or none on drug, '>' = one read or none on a drug-free plate. Shares are relative, so most strains fall below 1 when a few take over. Listed are strains with at least 15 reads on both drug-free plates, and hits; most hits rest on fewer reference reads. Replicate rank correlation about 0.5. Edits are read from barcodes.

B1: murB F54A (protein)
chain: MNHSLKPWNTFGIDHNAQHIVCAEDEQQLLNAWQYATAEGQPVLILGEGSNVLALEDYRGTVIINRIKGIEIHDEPDAWYLHVGAGENWHRLVKYTLQEGMPGLENLALIPGCVGSSPIQNIGAYGVELQRVCAYVDSVELATGKQVRLTAKECRFGYRDSIFKHEYQDRFAIVAVGLRLPKEWQPVLTYGDLTRLDPTTVTPQQVFNAVCHMRTTKLPDPKVNGNAGSFFKNPVVSAETAKALLSQFPTAPNYPQADGSVKLAAGWLIDQCQLKGMQIGGAAVHRQQALVLINEDNAKSEDVVQLAHHVRQKVGEKFNVWLEPEVRFIGASGEVSAVETIS
B2: murB F54Q (protein)
chain: B1 chain with A54Q
B3: murB F54P (protein)
chain: B1 chain with A54P
B4: murB V284A (protein)
chain: B1 chain with A54F, V284A
B5: murB I63A (protein)
chain: B1 chain with A54F, I63A
B6: murB V210A (protein)
chain: B1 chain with A54F, V210A
B7: asd L139Q (protein)
chain: MKNVGFIGWRGMVGSVLMQRMVEERDFDAIRPVFFSTSQLGQAAPSFGGTTGTLQDAFDLEALKALDIIVTCQGGDYTNEIYPKLRESGWQGYWIDAASSLRMKDDAIIILDPVNQDVITDGLNNGIRTFVGGNCTVSQMLMSLGGLFANDLVDWVSVATYQAASGGGARHMRELLTQMGHLYGHVADELATPSSAILDIERKVTTLTRSGELPVDNFGVPLAGSLIPWIDKQLDNGQSREEWKGQAETNKILNTSSVIPVDGLCVRVGALRCHSQAFTIKLKKDVSIPTVEELLAAHNPWAKVVPNDREITMRELTPAAVTGTLTTPVGRLRKLNMGPEFLSAFTVGDQLLWGAAEPLRRMLRQLA
B8: asd L141Q (protein)
chain: B7 chain with Q139L, L141Q
B9: asd L141A (protein)
chain: B7 chain with Q139L, L141A
B10: murA I169P (protein)
chain: MDKFRVQGPTKLQGEVTISGAKNAALPILFAALLAEEPVEIQNVPKLKDVDTSMKLLSQLGAKVERNGSVHIDARDVNVFCAPYDLVKTMRASIWALGPLVARFGQGQVSLPGGCTIGARPVDLHISGLEQLGATIKLEEGYVKASVDGRLKGAHIVMDKVSVGATVTPMCAATLAEGTTIIENAAREPEIVDTANFLITLGAKISGQGTDRIVIEGVERLGGGVYRVLPDRIETGTFLVAAAISRGKIICRNAQPDTLDAVLAKLRDAGADIEVGEDWISLDMHGKRPKAVNVRTAPHPAFPTDMQAQFTLLNLVAEGTGFITETVFENRFMHVPELSRMGAHAEIESNTVICHGVEKLSGAQVMATDLRASASLVLAGCIAEGTTVVDRIYHIDRGYERIEDKLRALGANIERVKGE
B11: murA L313A (protein)
chain: B10 chain with P169I, L313A
B12: murA L313Q (protein)
chain: B10 chain with P169I, L313Q
B13: murA W95Q (protein)
chain: B10 chain with W95Q, P169I

Molecular target: Escherichia coli (laboratory strain)
Experiment: barcode share on antibiotic plates over drug-free plates; higher = less susceptible
Conditions: antibiotic: carbenicillin; 2× MIC (3.1 µg/mL)
Description: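 A pool of E. coli strains, each edited to carry one amino-acid change in an essential protein, was grown for 48 h on minimal glucose agar with or without antibiotic; strain barcodes were sequenced; mean of two replicates.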

Protein	fold change of barcode share
B1	0.335 ± 0.29
B2	0.32 ± 0.076
B3	0.37 ± 0.17
B4	0.189 ± 0.14
B5	0.363 ± 0.17
B6	0.167 ± 0.048
B7	0.307 ± 0.087
B8	0.407 ± 0.21
B9	0.354 ± 0.011
B10	0.198 ± 0.11
B11	0.227 ± 0.052
B12	0.39 ± 0.084
B13	0.101 ± 0.073

Same assay, conditions: antibiotic: gentamicin; 2× MIC (MIC 0.45 µg/mL)

Protein	fold change of barcode share
B3	< 0.0149
B4	< 0.0149
B5	< 0.00958
B6	< 0.0145
B7	< 0.00638
B8	< 0.00864
B9	0.0128 ± 0.011
B10	< 0.00543
B11	0.0285 ± 0.022
B12	< 0.00345
B13	< 0.0092
